Laboratory results reported in article PMC13225913 (Journal of medicinal chemistry, 2025).

Columns and labels:
[1] = rodents, rapid washout; cited from earlier work
[2] = molecular target: recombinant human S1PR5 membrane (Homo sapiens, UniProt Q9H228)
[3] = molecular target: recombinant human S1PR1 membranes (Homo sapiens, UniProt P21453); test: biochemical
[4] = molecular target: recombinant human S1PR3 membranes (Homo sapiens, UniProt Q99500); test: biochemical
[5] = molecular target: T1, recombinant human S1PR4 membranes (Homo sapiens, UniProt O95977); test: biochemical
T1 sequence (O95977 1-384): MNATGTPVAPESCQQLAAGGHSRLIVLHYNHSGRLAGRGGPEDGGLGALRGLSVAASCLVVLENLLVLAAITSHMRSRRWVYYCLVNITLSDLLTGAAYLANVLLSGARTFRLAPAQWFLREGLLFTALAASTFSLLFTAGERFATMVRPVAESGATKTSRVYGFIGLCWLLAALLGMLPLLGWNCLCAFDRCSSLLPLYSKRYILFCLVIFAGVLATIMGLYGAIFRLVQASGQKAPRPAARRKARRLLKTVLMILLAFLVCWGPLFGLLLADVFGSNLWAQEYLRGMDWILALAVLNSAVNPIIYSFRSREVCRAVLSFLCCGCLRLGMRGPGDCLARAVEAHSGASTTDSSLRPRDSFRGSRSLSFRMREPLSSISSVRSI

[6] = molecular target: recombinant human S1PR2 membranes (Homo sapiens, UniProt O95136); test: biochemical
[7] = read-out: IC50 S1PR5, [^32P]S1P competition, recombinant human S1PR5 membrane

Chain of UniProt Q9H228 (Q9H228 whole entry): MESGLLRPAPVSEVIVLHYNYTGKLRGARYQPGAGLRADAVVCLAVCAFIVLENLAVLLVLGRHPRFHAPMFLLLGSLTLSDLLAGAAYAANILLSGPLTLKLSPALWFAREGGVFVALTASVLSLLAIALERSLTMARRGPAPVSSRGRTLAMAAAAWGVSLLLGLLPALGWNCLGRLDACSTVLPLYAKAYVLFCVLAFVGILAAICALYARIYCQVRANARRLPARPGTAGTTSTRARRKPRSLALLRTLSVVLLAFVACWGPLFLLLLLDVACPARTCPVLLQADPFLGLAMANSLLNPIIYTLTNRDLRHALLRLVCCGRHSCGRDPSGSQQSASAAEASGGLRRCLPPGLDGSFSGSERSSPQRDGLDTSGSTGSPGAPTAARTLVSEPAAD
Chain of UniProt O95136 (O95136 whole entry): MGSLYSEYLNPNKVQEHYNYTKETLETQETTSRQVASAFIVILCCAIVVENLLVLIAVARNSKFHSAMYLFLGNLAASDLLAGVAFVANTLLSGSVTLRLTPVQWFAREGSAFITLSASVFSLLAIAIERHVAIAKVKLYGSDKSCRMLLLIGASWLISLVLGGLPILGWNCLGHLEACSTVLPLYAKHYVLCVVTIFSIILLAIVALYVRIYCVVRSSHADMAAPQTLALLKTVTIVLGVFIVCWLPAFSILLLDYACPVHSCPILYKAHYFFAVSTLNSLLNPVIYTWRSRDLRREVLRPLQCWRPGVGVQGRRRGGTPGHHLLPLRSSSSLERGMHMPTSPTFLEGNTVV
Chain of UniProt Q99500 (Q99500 whole entry): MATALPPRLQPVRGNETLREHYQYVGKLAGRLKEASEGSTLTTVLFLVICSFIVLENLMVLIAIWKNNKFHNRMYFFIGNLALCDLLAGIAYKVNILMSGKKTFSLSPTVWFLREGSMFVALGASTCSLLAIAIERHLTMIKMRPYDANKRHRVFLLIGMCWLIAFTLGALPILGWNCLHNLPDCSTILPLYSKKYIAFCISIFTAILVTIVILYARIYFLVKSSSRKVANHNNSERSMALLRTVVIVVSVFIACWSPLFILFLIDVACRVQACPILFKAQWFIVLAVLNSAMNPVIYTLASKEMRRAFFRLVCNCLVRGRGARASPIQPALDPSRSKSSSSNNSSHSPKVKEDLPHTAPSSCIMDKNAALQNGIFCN
Chain of UniProt P21453 (P21453 whole entry): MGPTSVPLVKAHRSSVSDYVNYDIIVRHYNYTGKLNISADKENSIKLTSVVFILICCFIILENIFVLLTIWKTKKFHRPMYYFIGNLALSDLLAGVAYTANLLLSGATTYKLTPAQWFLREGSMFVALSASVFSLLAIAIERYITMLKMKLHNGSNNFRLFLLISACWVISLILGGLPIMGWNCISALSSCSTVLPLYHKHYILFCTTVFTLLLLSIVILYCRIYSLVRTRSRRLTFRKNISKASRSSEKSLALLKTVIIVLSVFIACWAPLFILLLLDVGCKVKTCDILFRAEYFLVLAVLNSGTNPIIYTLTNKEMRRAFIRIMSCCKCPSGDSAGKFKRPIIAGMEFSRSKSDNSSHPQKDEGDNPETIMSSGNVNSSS

**Q.** With `COc1c(C)ccc(Nc2c(C)cc([18F])cc2C)c1C(N)=O` [[^18F]TEFM78] as the compound, how does the brain washout time [1] read?
**A.** The brain washout time was at most 20 min.

**Q.** For `Cc1cc(O[C@H]2CC[C@H](C(C)(C)C)CC2)c(CN(C)CCCC(=O)O)c2ccccc12` [Compound 16d, 4-(((2-(((trans)-4-(tert-Butyl)cyclohexyl)oxy)-4-methylnaphthalen-1-yl)methyl)(methyl)amino) butanoic acid], which IC50 [2] is on record?
**A.** Its IC50 is 0.348 ± 0.0288 µM.

**Q.** For `Cc1cc(O[C@H]2CC[C@H](C(C)(C)C)CC2)c(CNCCC(=O)O)c2ccccc12` [Compound 16a, 3-(((2-(((trans)-4-(tert-Butyl)cyclohexyl)oxy)-4-methylnaphthalen-1-yl)methyl)amino) propanoic acid], which IC50 [3] is on record?
**A.** Its IC50 is over 1 µM.

**Q.** And the IC50 [4]?
**A.** The IC50 was over 1 µM.

**Q.** What about the IC50 [5] of the same compound?
**A.** The IC50 was over 1 µM.

**Q.** What about the IC50 [6] of the same compound?
**A.** The IC50 was over 1 µM.

**Q.** Which IC50 [2, 7] does the source give for `CNS(=O)(=O)CCCNCc1c(O[C@H]2CC[C@H](C(C)(C)C)CC2)cc(C)c2ccccc12` [Compound 16k, 3-(((2-(((trans)-4-(tert-Butyl)cyclohexyl)oxy)-4-methylnaphthalen-1-yl)methyl)amino)-N-methyl propane-1-sulfonamide] here?
**A.** The IC50 was over 1 µM.

**Q.** What does the source list for `Cc1cc(O[C@H]2CC[C@H](C(C)(C)C)CC2)c(CN2CCC(C(=O)O)CC2)c2ccccc12` [Compound 7, 1-((2-(((trans)-4-(tert-Butyl)cyclohexyl)oxy)-4-methylnaphthalen-1-yl)methyl)piperidine-4-carboxylic acid, reference compound]?
**A.** IC50 [3]: > 1 µM; IC50 [4]: > 1 µM; IC50 [5]: > 1 µM; IC50 [6]: > 1 µM

**Q.** Which IC50 [2] does the source give for `Cc1cc(O[C@H]2CC[C@H](C(C)(C)C)CC2)c(CNCC(F)C(=O)O)c2ccccc12` (stereo partly drawn) [Compound 16c, 3-(((2-(((trans)-4-(tert-Butyl)cyclohexyl)oxy)-4-methylnaphthalen-1-yl)methyl)amino)-2-fluoropropanoic acid] here?
**A.** Its IC50 is 0.252 ± 0.0343 µM.

**Q.** With `Cc1cc(O[C@H]2CC[C@H](C(C)(C)C)CC2)c(CN(C)CCC(=O)O)c2ccccc12` [Compound 16e] as the compound, how does the IC50 [2, 7] read?
**A.** The IC50 was 0.475 ± 0.0274 µM.

Like-named read-outs stand apart in the source and are kept apart here.
